This note sets out measurements from PMC6108835, “Target-Based Discovery of an Inhibitor of the Regulatory Phosphatase PPP1R15B” (Cell, 2018).

This experiment addresses T1, MBP-R15B^340-698-His (human, UniProt Q5SWA1 340-698).
T1 construct: Construct in pMAL-c5x as described in Das et al., 2015; also called PPP1R15B; source: E. coli BL21-Gold (DE3) pLysS, purified (HisTrap, MBPTrap); not shown: MBP, N-terminal, kept; His6, C-terminal, kept
T1 sequence (looked up): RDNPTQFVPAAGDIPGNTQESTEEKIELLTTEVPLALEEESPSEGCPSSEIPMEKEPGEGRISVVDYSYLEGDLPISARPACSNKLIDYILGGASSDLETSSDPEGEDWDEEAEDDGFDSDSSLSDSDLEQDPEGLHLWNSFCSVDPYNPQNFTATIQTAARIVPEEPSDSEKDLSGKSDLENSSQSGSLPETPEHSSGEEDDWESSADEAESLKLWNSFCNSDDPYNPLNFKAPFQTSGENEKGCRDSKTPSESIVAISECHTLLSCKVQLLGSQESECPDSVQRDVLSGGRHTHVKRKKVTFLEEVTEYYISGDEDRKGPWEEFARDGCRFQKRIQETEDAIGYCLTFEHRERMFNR
Put plainly: pull-down; partially purified bio-PP1c held on neutravidin agarose beads, washed, then incubated with or without 10 μM R15 (A or B) overnight at 4°C in IP buffer (50 mM Tris pH 7.5, 100 mM NaCl, 0.1 mM EGTA, 0.05% Tween 20, 0.1% NP40); Coomassie-stained gel, streptavidin-HRP blot. The settings on record: both partners purified.

B1: bio-PP1c^[…] (biotinylated PP1c) (enzyme)
chain: not shown
modifications: biotin on the N-terminal biotin acceptor peptide (BAP)
notes: human PP1cγ, catalytic subunit of protein phosphatase 1, […]; Only partially pure before capture; also called PP1cγ; PP1γc^[…]; source: Sf9 insect cells (baculovirus, pDW464, biotinylated in vivo by BirA), partially purified (HiTrap Q, Superdex 200); not shown: biotin acceptor peptide (BAP), N-terminal, kept
For the molecule B1, the binding result is “binds”.
